The whole screen tested about 310,000 compounds, of which about 18,000 (5.8%) were called active. Inconclusive results, whose numbers are uncertain, are shown with a selection of clear calls. Calls come from the whole dose curve; as a rule, active = well fitted inhibition curve with a large enough effect; inconclusive = small, poorly fitted or top-dose-only effect, or another doubt; inactive = no such curve, though single readings can be large or run the other way. Potencies of inconclusive entries are left out as doubtful fits.
test: Primary qHTS for delayed death inhibitors of the malarial parasite plastid, 48 hour incubation; details: P. falciparum luciferase growth in erythrocytes; series mostly up to 28.7 µM
Procedure, shortened: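 Firefly luciferase activity from engineered P. falciparum reports growth; inhibitors lower the luminescent signal. Cultures contained 2% hematocrit erythrocytes at 0.1% final parasitemia.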
Potency is the fitted concentration of half-maximal effect; tags give direction and shape of the fitted curve.

SMILES	Potency
O=C(Nc1ccc([N+](=O)[O-])cn1)C1CC2CCC1C2 (configuration not stated)	inactive
CCC(CC)NC(=O)CCCSc1nc2ccccc2[nH]1	inactive
COc1ccc(CCNC(=O)c2cc(-c3ccncc3)nc3ccc(S(=O)(=O)N4CCOCC4)cc23)cc1OC	inconclusive [inhibitor, partial curve]
CCCCOc1ccc(C(=O)NCC2(c3ccccc3)CCOCC2)cc1	inconclusive [inhibitor, partial curve, poor fit]
COc1ccccc1CN(C)C(=O)c1cccc(S(=O)(=O)N2CCN(Cc3ccccc3)CC2)c1	inconclusive [inhibitor, single point]
Cc1cccc(NC(=O)CSc2nnc(-c3ccccc3C)o2)c1	inactive
O=C(COC(=O)c1cc([N+](=O)[O-])ccc1N1CCOCC1)c1ccc(Br)cc1	inconclusive [inhibitor, partial curve]
Cc1nn(Cc2ccccc2)c2sc(C(=O)NCc3cccnc3)cc12	inconclusive [inhibitor, single point]
Cc1cc(-c2ccc(C)c(S(=O)(=O)NCCC(C)N3CCCCCC3)c2)on1 (configuration not stated)	inactive
CC1(C)Cc2nc3sc4c(SCC(=O)NC(c5ccccc5)c5ccccc5)ncnc4c3cc2CO1	inconclusive [inhibitor, full curve, poor fit]
CCc1ccc(CNC(=O)c2ccc(OC3CCN(C(C)=O)CC3)c(OC)c2)nc1	inactive
O=c1c(-c2ccccc2Cl)coc2c(CN3CCCCC3)c(O)ccc12	inconclusive [inhibitor, partial curve]
N#C/C(=C/c1cccc(O)c1)C(=O)NCc1ccc(Cl)cc1	inconclusive [inhibitor, single point]
S=C(NC1CCCCC1)N1CCN(C/C=C/c2ccccc2)CC1	inconclusive [inhibitor, partial curve, poor fit]
COC(=O)c1cccc(CN2C(=O)SC(Nc3ccccc3)C2=O)c1 (configuration not stated)	inconclusive [inhibitor, partial curve, poor fit]
O=C(NNS(=O)(=O)c1ccc(Cl)cc1)c1cc(-c2ccccc2)n[nH]1	inactive
CCOC(=O)c1ccc(NC(=O)c2nc[nH]c2C(=O)N[C@@H](CC(C)C)C(=O)OC(C)(C)C)cc1	active: 7.38 µM
CCn1c2ccccc2c2nnc(SCC(=O)Nc3c(C)n(C)n(-c4ccccc4)c3=O)nc21	inconclusive [inhibitor, single point]
CC(C)(CCl)C(=O)Nc1ccc(Sc2ccc(F)cc2)cc1	inconclusive [inhibitor, partial curve, poor fit]
c1ccc(CN2C3=NCCN3c3ccccc32)cc1	inactive
O=C(CC1Nc2c3ccccc3nc(=S)n2C1=O)NC1CCCCC1 (configuration not stated)	inconclusive [inhibitor, partial curve, poor fit]
CCOc1ccc(N2C(=O)/C(=C\c3ccccc3OC)S(=O)(=O)C2c2cccc([N+](=O)[O-])c2)cc1 (configuration not stated)	inactive
Cn1c(=O)c2ncn(CC(=O)Nc3cc(C(F)(F)F)ccc3N3CCOCC3)c2n(C)c1=O	inconclusive [inhibitor, partial curve, poor fit]

SMILES	Potency
Cc1cc(C(=O)Nc2ccccc2Cl)c2ccccc2n1	inactive
CCCn1cc(S(=O)(=O)c2ccc(F)cc2)c(=O)c2cc(OCC)ccc21	inconclusive [inhibitor, single point]
CCc1ccc(S(=O)(=O)/N=C2\C=C(Nc3ccc(O)cc3)C(=O)c3ccccc32)cc1	active: 0.738 µM
Cc1ccc(C(=O)N/N=C\c2ccc([N+](=O)[O-])o2)cn1	active: 3.7 µM
COc1ccccc1NC(=O)c1ccc(NC(=O)c2nc3nccc(C)n3n2)cc1	inconclusive [inhibitor, single point]
O=C(Nc1c2c(nn1-c1ccccc1)CS(=O)C2)c1ccc2c(c1)OCO2 (configuration not stated)	inactive
Cc1csc(NC(=O)c2nc(-c3ccccc3)n(-c3ccccc3)n2)n1	inconclusive [inhibitor, partial curve, poor fit]
CCOC(=O)C1=NN(c2ccc(C)cc2)C2(S1)SC(C(C)=O)=C(C)N2c1ccccc1 (configuration not stated)	inconclusive [inhibitor, partial curve, poor fit]
O=C(CNC(=O)c1cccc(F)c1)OCC(=O)N1CCCCC1	inactive
C(=N\NCc1ccccc1)/c1ccc2nccnc2c1	inactive
COc1ccc(-c2nnn(CC(=O)N(CCCO)C(C(=O)NC3CCCC3)c3ccncc3)n2)cc1 (configuration not stated)	inactive
CCCCCC(=O)Nc1ccc(C(=O)CN2C(=O)NC3(CCCCCC3)C2=O)cc1	inconclusive [inhibitor, partial curve]
CNc1nc(N)c(C(=O)C23CC4CC(CC(C4)C2)C3)s1	inactive
COCCn1c(SCC(=O)N2CCN(c3ccccc3)CC2)nc2c(c1=O)SC(C)C2 (configuration not stated)	inconclusive [inhibitor, single point]
Cc1ccc(-c2csc(NC(=O)CSC3=NCCS3)n2)cc1	inactive
CC(C)CNC(=O)NC(=O)COC(=O)c1cc([N+](=O)[O-])ccc1NCc1ccccc1Cl	inconclusive [inhibitor, partial curve, poor fit]
Cc1cccc(-c2cc(C(=O)Nc3c(C)n(C)n(-c4ccccc4)c3=O)c3ccccc3n2)c1	inconclusive [inhibitor, full curve, poor fit]
CCn1c(COc2ccc(=O)n(-c3ccccc3)n2)nnc1SCc1ccccc1	inconclusive [inhibitor, single point]
NC(=S)N/N=C1/CCSc2ccc3ccccc3c21	inconclusive [inhibitor, partial curve]
O=C(COC(=O)CCC(=O)c1ccccc1)NNC(=O)c1ccc(Cl)cc1	inconclusive [inhibitor, partial curve, poor fit]
Cn1ncc([N+](=O)[O-])c1C(=O)Nc1ccn(Cc2ccccc2F)n1	inconclusive [inhibitor, single point]
CC(C)n1c(C(F)(F)F)nc2cc(C(=O)N3CCCCC3)ccc21	inconclusive [inhibitor, single point]
COCCN(CCOC)c1ncnc2c1cnn2-c1ccc(Cl)cc1	inactive

SMILES	Potency
CCCCCCC(=O)N/N=C/c1c(O)n(CCCC)c(=S)[nH]c1=O	inconclusive [inhibitor, single point]
Cc1cc(NC(=O)c2cc(-c3ccncc3)nc3c(C)cccc23)no1	inconclusive [inhibitor, single point]
COC(=O)c1c(C)oc(C)c1S(=O)(=O)NC(C)(C)C	inactive
COc1ccccc1OCC(=O)NC1CCSc2ccccc21 (configuration not stated)	inconclusive [inhibitor, partial curve]
CCOc1ccc(NC(=O)C2CC(=O)N(c3ccc4c(c3)OCCO4)C2)cc1OCC (configuration not stated)	inconclusive [inhibitor, partial curve, poor fit]
COC(=O)c1cc(S(=O)(=O)N2CCCC2=O)c(Cl)cc1Cl	inconclusive [inhibitor, partial curve, poor fit]
CC1CN(C(=O)COC(=O)Cc2ccc(Cl)cc2)CC(C)O1 (configuration not stated)	inconclusive [inhibitor, partial curve, poor fit]
O=C1C2C3C=CC(CNS(=O)(=O)c4ccccc4[N+](=O)[O-])(O3)C2C(=O)N1c1ccccc1 (configuration not stated)	inconclusive [inhibitor, partial curve, poor fit]
Cc1ccc(S(=O)(=O)N(CC(=O)Nc2cc(C)ccc2C)C(=O)N2CCN(C)CC2)cc1	inconclusive [inhibitor, partial curve, poor fit]
O=C(OCc1ccccc1)c1cc(S(=O)(=O)N2CCCCC2)ccc1N1CCOCC1	inconclusive [inhibitor, full curve, poor fit]
Cc1ccc(-c2nnc(SCC(N)=O)nc2-c2ccc(C)cc2)cc1	inactive
COc1ccc(NC(=O)C2CCCN(c3cc(C)nc4ncnn34)C2)cc1 (configuration not stated)	inactive
CN(CCC#N)C(=O)COC(=O)c1ccc(Cl)c(S(=O)(=O)N(C)c2ccccc2)c1	inactive
Cc1ccc(CCNC(=O)CN(C)S(=O)(=O)c2ccc3c(c2)n(C)c(=O)c(=O)n3C)cc1	inconclusive [inhibitor, partial curve, poor fit]
CC1CCCN(c2ccc(C(=O)NCc3ccc4c(c3)OCO4)cc2[N+](=O)[O-])C1 (configuration not stated)	inactive
CCOC(=O)C1CCCN(c2nc3ccccc3nc2C(C#N)C(=O)OC(C)COC)C1 (configuration not stated)	inconclusive [inhibitor, single point]
Oc1ccc(Br)cc1/C=N/Nc1ncc(-c2ccccc2)cn1	inconclusive [inhibitor, single point]
COC(=O)c1ccc(NC(=O)c2cc[n+](Cc3ccccc3)cc2)cc1	inconclusive [inhibitor, partial curve]
CCCC(=O)Nc1cc(OC)c(C(=O)OC)cc1Cl	inactive
Cc1cccc2c(N=NC(=O)c3ccc(NS(=O)(=O)c4cccs4)cc3)c(O)[nH]c12	inconclusive [inhibitor, partial curve]
COc1ccc(CCN(Cc2ccccn2)C(=S)Nc2ccc(C)cc2)cc1OC	inactive
